Data from the antibiotic and cytotoxicity screens of Wong et al. (2023).
Some of the results follow.

Tests used:
HSkMC = human skeletal muscle cells; assay: cytotoxicity call (relative viability < 0.9); conditions: 10 µM
S. aureus RN4220 = assay: growth inhibition call (relative growth <= 0.2); conditions: 50 µM

Row | Structure (SMILES) | cytotoxicity call (HSkMC) | growth inhibition call (S. aureus RN4220)
1 | CN1C(=O)c2cc(NC(=O)c3ccc(C(F)(F)F)cc3)ccc2OC[C@@H]2O[C@@H](CC(=O)NC3Cc4ccccc4C3)CC[C@H]21 | active | inactive
2 | Cc1ccc(S(=O)(=O)N(C)C[C@@H]2OCCCC[C@@H](C)Oc3ccc(NC(=O)Nc4ccccc4)cc3C(=O)N([C@H](C)CO)C[C@H]2C)cc1 | inactive | inactive
3 | Cc1noc(C)c1NC(=O)Nc1ccc2c(c1)C(=O)N([C@@H](C)CO)C[C@@H](C)[C@H](CN(C)Cc1ccc(Cl)c(Cl)c1)OCCCC[C@H](C)O2 | inactive | inactive
4 | COc1ccc(CN(C)C[C@H]2Oc3ccc(NS(=O)(=O)c4c(C)noc4C)cc3CC(=O)N([C@H](C)CO)C[C@@H]2C)cc1 | inactive | inactive
5 | COc1ccc(COCC23Oc4ccccc4[C@H]([C@H]2CO)n2c(c4c(c(C(C)=O)c2=O)C(=O)N(C)C4=O)N3C)cc1 | inactive | inactive
6 | C[C@@H]1CN([C@@H](C)CO)C(=O)c2cc(NC(=O)CCCN(C)C)ccc2O[C@@H]1CN(C)Cc1ccc(C(=O)O)cc1 | inactive | inactive
7 | COc1ccc(S(=O)(=O)Nc2ccc3c(c2)C(=O)N([C@H](C)CO)C[C@H](C)[C@H](CN(C)Cc2ccc(C(=O)O)cc2)OCCCC[C@@H](C)O3)cc1 | inactive | inactive
8 | C[C@H](CO)N1C[C@H](C)[C@@H](CN(C)S(=O)(=O)c2cn(C)cn2)Oc2c(NC(=O)c3nc4ccccc4s3)cccc2C1=O | inactive | inactive
9 | CC1=C(C(=O)OCCN(Cc2ccccc2)c2ccccc2)[C@@H](c2cccc([N+](=O)[O-])c2)C(P2(=O)OCC(C)(C)CO2)=C(C)N1.CCO.Cl | inactive | inactive
10 | O=C(Cc1nn[nH]n1)NS(=O)(=O)c1ccccc1 | inactive | inactive
11 | C[C@@H]1CN([C@H](C)CO)C(=O)Cc2cc(NS(=O)(=O)c3ccccc3)ccc2O[C@H]1CN(C)Cc1ccc(-c2ccccc2)cc1 | active | inactive
12 | C[C@@H]1CN([C@@H](C)CO)C(=O)c2c(c3ccccc3n2C)-c2ccccc2CO[C@@H]1CN(C)Cc1ccc2c(c1)OCO2 | inactive | inactive
13 | C[C@H]1CN([C@@H](C)CO)C(=O)c2cc(NS(=O)(=O)c3ccc(F)cc3)ccc2O[C@H]1CN(C)Cc1ccc(-c2ccccc2)cc1 | inactive | inactive
14 | CC(C)CC#Cc1ccc2c(c1)O[C@@H](CN(C)CC1CCOCC1)[C@@H](C)CN([C@H](C)CO)S2(=O)=O | inactive | inactive
15 | O=C/C=C/c1ccccc1Cl | inactive | inactive
16 | COc1ccc(S(=O)(=O)Nc2ccc3c(c2)CC(=O)N([C@H](C)CO)C[C@@H](C)[C@H](CN(C)C)O3)cc1 | inactive | inactive
17 | C[C@@H]1CCCCO[C@@H](CN(C)Cc2ccc(C(F)(F)F)cc2)[C@H](C)CN([C@H](C)CO)C(=O)c2cc(N(C)C)ccc2O1 | inactive | inactive
18 | C[C@H]1CN([C@@H](C)CO)C(=O)c2cccc(NC(=O)Nc3ccccc3)c2O[C@H]1CN(C)Cc1ccc(Oc2ccccc2)cc1 | inactive | inactive
19 | Cc1noc(C)c1NC(=O)Nc1ccc2c(c1)CC(=O)N([C@@H](C)CO)C[C@@H](C)[C@H](CN(C)Cc1ccc(C(F)(F)F)cc1)O2 | inactive | inactive

Row | Structure (SMILES) | cytotoxicity call (HSkMC) | growth inhibition call (S. aureus RN4220)
20 | COc1ccc(S(=O)(=O)N(C)C[C@H]2Oc3ccc(NC(=O)Cc4ccccc4)cc3CC(=O)N([C@H](C)CO)C[C@@H]2C)cc1 | inactive | inactive
21 | C[C@@H]1CCCCO[C@H](CN(C)Cc2ccc(Cl)c(Cl)c2)[C@@H](C)CN([C@H](C)CO)C(=O)c2cc(NS(C)(=O)=O)ccc2O1 | inactive | inactive
22 | CO[C@H](CN(C)S(=O)(=O)c1cn(C)cn1)[C@@H](C)CN(C(=O)Nc1ccc(C(F)(F)F)cc1)[C@H](C)CO | inactive | active
23 | CO[C@@H](CN(C)C(=O)C1CCOCC1)[C@@H](C)CN(C(=O)Nc1ccc(C(F)(F)F)cc1)[C@@H](C)CO | inactive | inactive
24 | CNS(=O)(=O)c1ccc(C)cc1 | inactive | inactive
25 | Cc1ccc(S(=O)(=O)Nc2ccc3c(c2)CC(=O)N([C@H](C)CO)C[C@H](C)[C@@H](CN(C)S(=O)(=O)c2c(C)noc2C)O3)cc1 | inactive | inactive
26 | COc1ccc(S(=O)(=O)N(C)C[C@H]2Oc3ccc(NC(=O)Cc4ccccc4)cc3CC(=O)N([C@@H](C)CO)C[C@@H]2C)cc1 | inactive | inactive
27 | C[C@@H]1CN([C@@H](C)CO)C(=O)Cc2cc(NC(=O)NC3CCCCC3)ccc2O[C@H]1CN(C)Cc1ccc(-c2ccccc2)cc1 | inactive | inactive
28 | CC(C)C[C@@H]1NC(=O)[C@@H](C(C)C)NC(=O)[C@@H]2CCCN2C(=O)[C@@H](CC(=O)O)NC(=O)[C@@H](Cc2c[nH]c3ccccc23)NC1=O | inactive | inactive
29 | C[C@H]1CCCCO[C@@H](CN(C)Cc2ccc(C(F)(F)F)cc2)[C@@H](C)CN([C@@H](C)CO)C(=O)c2cc(NS(=O)(=O)c3ccc(Cl)cc3)ccc2O1 | inactive | inactive
30 | COc1ccc(S(=O)(=O)Nc2ccc3c(c2)C(=O)N(C)C[C@@H](OC)[C@H](C)CN(C(=O)NC(C)C)[C@H](C)CO3)cc1 | inactive | inactive
31 | C[C@H]1CN([C@@H](C)CO)C(=O)Cc2cc(NS(=O)(=O)c3ccccc3)ccc2O[C@H]1CN(C)S(=O)(=O)c1cn(C)cn1 | inactive | inactive
32 | C[C@H]1CN([C@@H](C)CO)C(=O)c2cccc(NS(=O)(=O)c3ccc(F)cc3)c2O[C@@H]1CN(C)Cc1ccncc1 | inactive | inactive
33 | Cc1ccc(S(=O)(=O)Nc2ccc3c(c2)C(=O)N([C@@H](C)CO)C[C@H](C)[C@@H](CN(C)S(=O)(=O)c2ccc(Cl)cc2)OCCCC[C@@H](C)O3)cc1 | inactive | inactive
34 | C[C@@H]1CN([C@@H](C)CO)S(=O)(=O)c2ccc(C#CC3CC3)cc2O[C@H]1CN(C)C(=O)Cc1ccncc1 | inactive | inactive
35 | COCC(=O)Nc1ccc2c(c1)OC[C@@H](C)N(Cc1ccccc1F)C[C@H](C)[C@H](OC)CN(C)C2=O | inactive | inactive
36 | C[C@@H]1CCCCO[C@@H](CN(C)C(=O)NC2CCCCC2)[C@H](C)CN([C@H](C)CO)C(=O)c2cc(NS(=O)(=O)c3ccc(Cl)cc3)ccc2O1 | inactive | inactive
37 | C[C@@H]1CN([C@@H](C)CO)C(=O)c2cc(NS(=O)(=O)c3ccc(F)cc3)ccc2O[C@@H](C)CCCCO[C@@H]1CN(C)C(=O)Nc1ccc(F)cc1 | inactive | inactive
38 | C[C@@H]1CN([C@H](C)CO)C(=O)Cc2cc(NC(=O)CCCCCC(=O)Nc3ccccc3N)ccc2O[C@H]1CN(C)Cc1ccc(C(F)(F)F)cc1 | inactive | inactive

Row | Structure (SMILES) | cytotoxicity call (HSkMC) | growth inhibition call (S. aureus RN4220)
39 | Nc1cccc(-c2cccs2)c1 | inactive | inactive
40 | O=C(C[C@H]1CC[C@@H]2[C@H](COC[C@H](O)CN2C(=O)c2ccccc2F)O1)N1CCN(c2ccccc2)CC1 | inactive | inactive
41 | CO[C@@H]1CN(C)C(=O)c2cc(NC(=O)C3CC3)ccc2OC[C@@H](C)N(C(=O)Cc2ccccn2)C[C@H]1C | inactive | inactive
42 | C[C@H]1CN([C@@H](C)CO)C(=O)Cc2cc(NC(=O)CCN3CCOCC3)ccc2O[C@H]1CN(C)Cc1ccc(C(=O)O)cc1 | inactive | inactive
43 | O=C(O)c1ccc(CNc2cn[nH]c(=O)n2)cc1 | inactive | inactive
44 | Cc1noc(C)c1NC(=O)N(C)C[C@H]1Oc2ccc(NC(=O)Nc3ccc(C(F)(F)F)cc3)cc2CC(=O)N([C@H](C)CO)C[C@@H]1C | inactive | inactive
45 | C[C@@H]1CCCCO[C@H](CN(C)C(=O)Nc2cccc3ccccc23)[C@@H](C)CN([C@@H](C)CO)C(=O)c2cc(NC(=O)C3CCCCC3)ccc2O1 | inactive | inactive
46 | COCC#Cc1cnc2c(c1)C(=O)N([C@@H](C)CO)C[C@@H](C)[C@H](CN(C)C(=O)CCN1CCCCC1)O2 | inactive | inactive
47 | C[C@H]1CCCCO[C@H](CN(C)Cc2ccc(Cl)c(Cl)c2)[C@@H](C)CN([C@@H](C)CO)C(=O)c2cc(NS(=O)(=O)c3ccc(F)cc3)ccc2O1 | active | inactive
48 | CNC(=O)CN1CCO[C@H]2CN(C(=O)C(C)C)C[C@@H]21 | inactive | inactive
49 | Cc1ccc2nccc(C(=O)N3CCC[C@@H](Cn4cc(C(C)(C)N)nn4)C3)c2c1 | inactive | inactive
50 | C[C@@H]1CN([C@H](C)CO)C(=O)c2cc(NC(=O)C3CC3)ccc2O[C@@H]1CN(C)Cc1ccc(Oc2ccccc2)cc1 | inactive | inactive
51 | COc1ccc(CN(C)C[C@@H]2OCCCC[C@@H](C)Oc3ccc(NS(=O)(=O)c4ccc(OC)cc4)cc3C(=O)N([C@H](C)CO)C[C@H]2C)cc1 | inactive | inactive
52 | COc1ccc(NC(=O)N(C)C[C@@H]2OCCCC[C@@H](C)Oc3ccc(NC(=O)c4ccccc4)cc3C(=O)N([C@@H](C)CO)C[C@@H]2C)cc1 | inactive | inactive
53 | C[C@@H]1CN([C@@H](C)CO)C(=O)c2cc(NC(=O)c3ccccc3)ccc2O[C@@H](C)CCCCO[C@H]1CN(C)C(=O)Cc1ccccc1 | inactive | inactive
54 | COc1ccc(S(=O)(=O)Nc2ccc3c(c2)CC(=O)N([C@H](C)CO)C[C@H](C)[C@H](CN(C)S(=O)(=O)c2ccc(C)cc2)O3)cc1 | inactive | inactive
55 | [N-]=[N+]=Nc1ccccc1C[C@@]1(C(=O)N2CCCCC2)N=C(c2ccc(OCCCO)cc2)O[C@@H]1c1ccccc1 | inactive | inactive
56 | C[C@H](CO)N1C[C@H](C)[C@H](CN(C)Cc2ccc(C(F)(F)F)cc2)OCc2ccccc2-c2ccccc2C1=O | inactive | inactive
57 | C#CCN([C@H](/C=C/C1CC1)[C@@H](O)Cc1ccccc1)[C@@H](Cc1ccc(-n2cc(COc3ccccc3/C=C(C)/C=C/C(=O)NO)nn2)cc1)C(=O)OC | inactive | inactive
